# Measured values published in patent US20230340081A1 (Hoffmann-La Roche, published 2023).
# Columns and labels:
# Assay in all cases: flow cytometry, S-HBs-transfected 293-F cells
# [1] = target: T1, consensus S-HBs protein of HBV genotype H (ConsHBAg_H) (hepatitis B virus genotype H (consensus))
# T1 construct: also called genotype H S-HBs
# [2] = target: T2, consensus S-HBs protein of HBV genotype B (ConsHBAg_B) (hepatitis B virus genotype B (consensus))
# T2 construct: also called genotype B S-HBs
# [3] = target: T3, consensus S-HBs protein of HBV genotype D (ConsHBAg_D) (hepatitis B virus genotype D (consensus))
# T3 construct: also called genotype D S-HBs; ConsD S-HBs
# [4] = target: T4, consensus S-HBs protein of HBV genotype G (ConsHBAg_G) (hepatitis B virus genotype G (consensus))
# T4 construct: also called genotype G S-HBs
# [5] = target: T5, consensus S-HBs protein of HBV genotype C (ConsHBAg_C) (hepatitis B virus genotype C (consensus))
# T5 construct: also called genotype C S-HBs
# [6] = target: T6, consensus S-HBs protein of HBV genotype F (ConsHBAg_F) (hepatitis B virus genotype F (consensus))
# T6 construct: also called genotype F S-HBs
# [7] = target: T7, consensus S-HBs protein of HBV genotype A (ConsHBAg_A) (hepatitis B virus genotype A (consensus))
# T7 construct: also called genotype A S-HBs
binder,measurement,setting,value
Bv6.172 (antibody) heavy: EVQLVQSGAAVRKPGESLRISCQASGFSFTNYWITWVRQRPGKGLEWMGRIDTRDSYTNYSPSFQGHVTISIDRSINTAYLQWSSLKASDTAMYYCARLSTTYPLNYYGMDVWGQGTTVTVSSASTKGPSVFPLAPSSKSTSGGTAALGCLVKDYFPEPVTVSWNSGALTSGVHTFPAVLQSSGLYSLSSVVTVPSSSLGTQTYICNVNHKPSNTKVDKRV[human IgG1 Fc not spelt out] light: QSVLTQPPSVSGTPGQRVTISCTGSSSNIGANYDVNWYQQLPGTAPKVLIYGNTNRPSGVPDRFSGSKSGTSASLAITGLQAEDEADYYCQSYDTSLSGWVFGGGTKLTVLGQPKAAPSVTLFPPSSEELQANKATLVCLISDFYPGAVTVAWKADSSPVKAGVETTTPSKQSNNKYAASSYLSLTPEQWKSHRSYSCQVTHEGSTVEKTVAPTECS,% of bound S-HBs-expressing cells,[1],79%
same,% of bound S-HBs-expressing cells,[2],71%
same,% of bound S-HBs-expressing cells,[3],78%
same,% of bound S-HBs-expressing cells,[4],82%
same,% of bound S-HBs-expressing cells,[5],76%
same,% of bound S-HBs-expressing cells,[6],72%
same,% of bound S-HBs-expressing cells,[7],83%
